In all, about 410,000 compounds went through this assay and about 7,200 (1.8%) were called active. This list was built around the results that the source calls inconclusive (neither active nor inactive); the mix of calls is not that of the screen. The call rests on the fitted dose curve; in most records, active means well fitted activation curve with a large enough effect; inconclusive means small, poorly fitted or top-dose-only effect, or another doubt; inactive means no such curve, though single readings can be large or run the other way. Potencies of inconclusive entries are doubtful fits and often do not repeat.
Experiment: qHTS of TDP-43 Inhibitors; further: nearly all actives have a fitted effect of over 50% in size; on growth rescue (activation): % of control where 0% means no effect
Details: TDP-43 expressing yeast growth rescue, BacTiter-Glo, 24 h; growth rescue (activation): at 46.1 µM (top of the series) unless noted
How it was run: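 Growth rescue of TDP-43-toxic yeast measured as ATP luminescence (BacTiter-Glo). Cells grown to mid-log in raffinose, induced in galactose at OD600=0.02, exposed to compound 24 hr at 30 deg C.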
Potency means the concentration at half of the fitted maximal effect; tags describe the fitted curve by direction and shape.

Growth rescue (activation), inconclusive:
Cc1c2ccccc2c(C)c2c1ccc1ccccc12 -85.8% [activator]
Cn1c2ccccc2c(=O)c2ccc(Cl)cc21 -33% [activator]
O=C1CC2(CCN(C(=O)c3c(F)cccc3F)CC2)Oc2ccccc21 55.4% [activator]

Potency, active:
Cc1nc(N2CCC(C)CC2)c2c(C)c(C(=O)Nc3ccc4c(c3)OCCO4)sc2n1 7.08 µM
CNc1cncc(-c2cccc(OC)c2F)n1 28.2 µM
Cc1cccc(NC(=S)NCc2ccc3c(c2)OCO3)c1 17.8 µM
O=C(COC(=O)/C=C/c1ccc(Cl)c(Cl)c1)NC1CCCC1 10 µM
O=C(Nc1ccc(F)c(Cl)c1)C1CCCCC1 17.8 µM
COc1cccc(Nc2nc3ccccc3n3cnnc23)c1 12.6 µM
CC(C)c1nc2sc3c(=S)nc[nH]c3c2c2c1CCC2 15.8 µM
Cn1cnc([N+](=O)[O-])c1S(=O)(=O)Oc1ccccc1 12.6 µM

Potency, inconclusive:
[O-]/[N+](=C/c1ccco1)c1ccccc1 2.82 µM [activator, full curve, poor fit]
CCSC1=C(C#N)C(=O)n2c1cc1c2CCCC1 7.08 µM [activator, full curve, poor fit]
CCOc1cc(Br)c(CN2C(=O)NC3(CCCCCC3)C2=O)cc1OCC 17.8 µM [activator, partial curve]
Cc1ccc(OCC(=O)Nc2ccncc2)cc1C 0.0891 µM [activator, full curve]
Cc1cc(Oc2ccccc2)nc(SCC(=O)Nc2ccc(Cl)c(Cl)c2)n1 15.8 µM [activator, single point]
COc1ccc(C(=O)C(=O)N2CCN(c3ccccc3F)CC2)cc1 17.8 µM [activator, partial curve]
COc1ccc(CNc2ncnc3sccc23)cc1 5.01 µM [activator, single point]
COc1ccc(-n2ncc3c(NC4CCCC4)ncnc32)cc1 3.98 µM [activator, partial curve]
Clc1ccc(OCc2nn3c(-c4ccncc4)nnc3s2)cc1 5.62 µM [activator, partial curve]
COCCNC(=S)N1CCC2CC1c1c(Cl)cccc12 (configuration not stated) 25.1 µM [activator, partial curve]
O=C(Cn1nc(C(F)(F)F)c2c1CCCC2)Nc1ccc(Br)cc1 0.891 µM [activator, full curve]
Cc1cc(C)cc(-n2c(C)cc(C(=S)N3CCOCC3)c2C)c1 12.6 µM [activator, partial curve]
CCn1cc(/C=C/C(=O)Nc2ccc(C)cc2Br)cn1 12.6 µM [activator, partial curve]
CC(NS(=O)(=O)c1ccc(Br)s1)c1ccccc1 (configuration not stated) 15.8 µM [activator, partial curve]
O=C(NNC(=S)NC(=O)c1ccccc1Cl)c1cccc([N+](=O)[O-])c1 35.5 µM [activator, single point]
CC1(C(=O)Nc2ccc3c(c2)OCO3)CCN1C(=O)CCc1ccc(Cl)cc1Cl (configuration not stated) 35.5 µM [activator, single point]
COc1ccc(OC)c(NC(=O)COC(=O)CCC2CCCC2)c1 35.5 µM [activator, partial curve]
O=C(NC(=S)Nc1ccc(N2CCOCC2)cc1)c1cncc(Br)c1 14.1 µM [activator, partial curve]
COCCCn1c(C)cc(C(=O)CN2c3cccc4cccc(c34)S2(=O)=O)c1C 17.8 µM [activator, single point]
Nn1cnnc1N/N=C/c1cc(Br)cc(Br)c1O 2.82 µM [activator, full curve]
OCc1cc(-c2ccc(Cl)c(Cl)c2)on1 7.08 µM [activator, partial curve]
Fc1ccccc1/C=N/n1c(COc2ccccc2)n[nH]c1=S 12.6 µM [activator, single point]
CCOC(=O)c1ccc(NC(=O)CSc2ccc3ccccc3n2)cc1 5.62 µM [activator, single point]
COc1ccc(N2C(=O)CC(Sc3nc4ccccc4s3)C2=O)cc1 (configuration not stated) 22.4 µM [activator, single point]
CCCC(=O)Nc1nnc(CCN2CCCCC2)s1 1.78 µM [activator, partial curve]
O=C(CC1CCCCC1)NCc1ccccn1 10 µM [activator, partial curve]
CC(=O)c1ccc(NC(=O)c2cc(-c3ccc(C)s3)nc3ccccc23)cc1 0.355 µM [activator, full curve, poor fit]
O=C(NCc1cccc(Br)c1)c1cnn(-c2ccc(F)cc2)c1-n1cccc1 35.5 µM [activator, single point]
O=C(C(=O)N1CCN(c2ccccc2)CC1)c1c[nH]c2ccccc12 12.6 µM [activator, partial curve]
Cc1ccc(S(=O)(=O)CNC(=S)c2cccc(Cl)c2)cc1 11.2 µM [activator, partial curve]
CCc1cccc(C)c1NC(=O)CCOc1ccccc1 8.91 µM [activator, partial curve]
O=C1CC(c2nc(-c3ccc(Cl)cc3)no2)CN1c1ccc2c(c1)OCCO2 (configuration not stated) 11.2 µM [activator, partial curve]
COC(=O)[C@@H]1Cc2c([nH]c3ccccc23)C(C)N1C(=O)c1ccccc1 (some centres not stated) 12.6 µM [activator, partial curve]
O=C(c1ccc(N2CCCC2=O)cc1)N1CCN(c2ccc(Cl)cc2)CC1 17.8 µM [activator, single point]
CC1CCC2C(=O)N(c3cccc(OS(=O)(=O)c4ccccc4)c3)C(=O)C2C1 (configuration not stated) 35.5 µM [activator, single point]
CCNC(=S)Nc1ccc(OCc2nc3ccccc3s2)cc1 15.8 µM [activator, single point]
O=C(c1ccccc1)N1CCN2C(=O)c3ccccc3C12c1ccc(Cl)cc1 (configuration not stated) 35.5 µM [activator, single point]
O=C(CCCN1C(=O)c2cccc3cccc(c23)C1=O)N1CCN(c2ccc(F)cc2)CC1 28.2 µM [activator, single point]
CC(C)CNC(=O)COCc1cc(-c2ccc3c(c2)OCO3)on1 10 µM [activator, partial curve]
CC(=O)c1ccc(OCc2ncc(C(F)(F)F)cc2Cl)cc1 11.2 µM [activator, partial curve]
CCn1cc(C(=O)OCc2cccc(Br)c2)c(=O)c2ccc(C)nc21 10 µM [activator, partial curve, poor fit]
COc1ccccc1OCC(O)COC(N)=O (configuration not stated) 1.26 µM [activator, full curve, poor fit]
Clc1ccccc1-c1nc(-c2cccnc2)no1 10 µM [activator, partial curve]
CCOC(=O)C1CCCN(C(=O)c2cc3cc4ccc(OC)cc4nc3o2)C1 (configuration not stated) 7.94 µM [activator, partial curve]
COc1cc2c(cc1OC)C(C)N(S(=O)(=O)c1cccs1)CC2 (configuration not stated) 11.2 µM [activator, single point]
COc1ccccc1NC(=O)CCn1nc(-c2ccccc2OC)c2c(C)cc(C)nc21 35.5 µM [activator, single point]

Potency, inactive:
CCc1ccc(NC(=O)CC2C(=O)N(c3cccc(OC)c3)C(=O)N2C2CCCC2)cc1 (configuration not stated)
Cc1cc(C)cc(NC(=O)CSc2nc(-c3ccccc3)c3cc(F)ccc3n2)c1
O=C(CCC(=O)c1cccs1)OCC(=O)c1ccc(F)cc1
CCCCNC(=O)c1ccc2c(c1)ncn2-c1cc(OC)ccc1OC
COc1cc(OC)cc(-c2c(C#Cc3ccsc3)c3cc(-c4cccc5[nH]cc(C=O)c45)ccc3n2C)c1
Cc1c(Cl)cccc1-n1ncc(C(=O)Nc2ccc(Br)cc2F)c1C1CCNCC1
Cc1cccc(N2CCN(C(=O)CN3C(=O)CSc4c3c(C)nn4-c3ccccc3)CC2)c1C
CCOC(=O)N1CCc2c(sc3c2c(=O)n(CCc2ccccc2)c(=O)n3CC(=O)Nc2ccc(C)cc2)C1
CC(C)(C)CC(=O)NCC(c1ccc2c(c1)OCO2)N1CCN(c2ccccc2)CC1 (configuration not stated)
COc1ccc(CCNC(=O)CCc2ccsc2)cc1OC
CCC(C)[C@H](NS(=O)(=O)c1ccc(C)cc1)C(=O)N1CCC(C(=O)N[C@@H](Cc2ccccc2)C(=O)O)CC1 (some centres not stated)
CCOC(=O)c1c(N)sc2c(NC(C)=O)cccc12
CCc1ccccc1NC(=O)/C(=C/c1ccccc1)c1ccccc1
COc1cccc(-c2nc(CC(=O)O)cs2)c1OC
CCc1ccc(NC(=O)CC2C(=O)N(c3cccc(C)c3)C(=O)N2CCC(C)C)cc1 (configuration not stated)

Reference: PubChem BioAssay AID652104 (National Center for Advancing Translational Sciences (NCATS), 2013)
